“And” between values parts separate entries of the source, which are not always exact repeats. Equal entries are not always repeated. One block for each binder: values may come before it.
Experiments:
human GPC3-His protein [1] = biological target: T1, human GPC3-His protein (human, UniProt P51654 25-559); assay: ELISA, coated human GPC3, antibody 0.01 nM;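 note: Plate-bound antigen coated at 1 µg/mL, antibody incubated 2 h at 37 °C, binding detected by HRP-conjugated secondary antibody with TMB substrate, read as absorbance at 450 nm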
T1 construct: Bought protein; also called human GPC3 protein; not shown: His tag

human GPC3-His protein [2] = biological target: T1, human GPC3-His protein; assay: ELISA, coated human GPC3, antibody 10 nM;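 note: plate coated with antigen at 1 µg/mL, antibodies bound 2 h at 37 °C, detected via HRP-conjugated secondary antibody and TMB substrate, absorbance read after acid stop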
human GPC3-His protein [3] = biological target: T1, human GPC3-His protein; assay: ELISA, coated human GPC3, antibody 0.1 nM;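 note: antigen coated on 96-well plates at 1 µg/mL, antibody bound 2 h at 37 °C, detected with HRP-labeled secondary antibody and TMB substrate, acid-stopped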
human GPC3-His protein [4] = biological target: T1, human GPC3-His protein; assay: ELISA, coated human GPC3, antibody 0.0001 nM
[5] = biological target: T2, GPC3 endogenously expressed on HepG2 cells (UniProt P51654 25-554); assay: FACS on HepG2 cells;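 note: flow cytometric binding of chimeric antibodies to cells, read as mean fluorescence intensity, EC50 obtained by curve fitting of the MFI data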
T2 construct: whole, on cells

human GPC3-His protein [6] = biological target: T1, human GPC3-His protein; assay: ELISA, coated human GPC3, antibody 0.001 nM
[7] = biological target: T3, human GPC3 on CHO-K1-human GPC3 cells (clone CHOK1-hGPC3.2B5) (human, UniProt P51654 25-554); assay: FACS on CHOK1-hGPC3.2B5 cells;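 note: flow cytometry binding of chimeric antibodies to the cells, read out as mean fluorescence intensity, with the half-maximal concentration derived by curve fitting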
T3 construct: whole, on cells; Stably transfected CHO-K1 clone 2B5

human GPC3-His protein [8] = biological target: T1, human GPC3-His protein; assay: ELISA, coated human GPC3, antibody 1 nM;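 note: antigen coated at 1 µg/mL on 96-well plates, antibody bound for 2 h at 37 °C, detected with HRP-labeled secondary antibody and TMB, absorbance read at 450 nm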
human GPC3-His protein [9] = biological target: T1, human GPC3-His protein; assay: ELISA, coated human GPC3, antibody 100 nM;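 note: antibodies bound to antigen-coated 96-well plates (1 µg/mL), 2 h at 37 °C, detected with HRP-labelled secondary antibody and TMB substrate, absorbance read at 450 nm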
[10] = biological target: T4, murine GPC3-his protein (Sino Biological, Cat. No. 50989-M08B) (murine, UniProt Q8CFZ4 25-558); assay: ELISA, coated murine GPC3-His;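 note: antigen coated on plates at 1 µg/mL, test antibody bound for 2 h at 37 °C, detected with HRP-conjugated secondary antibody and TMB substrate after acid stop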
T4 construct: Bought protein; also called murine GPC3 protein

monkey GPC3-His protein [11] = biological target: T5, monkey GPC3-His protein (monkey); assay: SPR, antibody captured on Protein A chip, monkey GPC3-His analyte;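 note: run at 25 °C with 240 s association and up to 600 s dissociation, double-referenced, kinetics fitted to a 1:1 Langmuir binding model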
T5 construct: Bought recombinant protein; also called monkey GPC3 protein

human GPC3-His protein [12] = biological target: T6, human GPC3-His protein (human, UniProt P51654 25-559); assay: SPR, antibody captured on Protein A chip, human GPC3-His analyte;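 note: measured at 25 °C flow cell, human GPC3-His injected at five concentrations up to 200 nM, 240 s association, up to 600 s dissociation, double-referenced, fitted to Langmuir 1:1 model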
T6 construct: also called human GPC3 protein; not shown: His tag

monkey GPC3-His protein [13] = biological target: T5, monkey GPC3-His protein; assay: ELISA, monkey GPC3-His coated;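 note: Plate-coated antigen at 1 µg/mL, antibody binding 2 h at 37 °C, detected with HRP-labeled secondary antibody and TMB, absorbance at 450 nm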
murine GPC3-His protein [14] = biological target: T7, murine GPC3-His protein (murine, UniProt Q8CFZ4 25-558, limits assumed); assay: SPR, antibody captured on Protein A chip, murine GPC3-His injected
murine GPC3-His protein, sequence (Q8CFZ4 25-558 limits assumed): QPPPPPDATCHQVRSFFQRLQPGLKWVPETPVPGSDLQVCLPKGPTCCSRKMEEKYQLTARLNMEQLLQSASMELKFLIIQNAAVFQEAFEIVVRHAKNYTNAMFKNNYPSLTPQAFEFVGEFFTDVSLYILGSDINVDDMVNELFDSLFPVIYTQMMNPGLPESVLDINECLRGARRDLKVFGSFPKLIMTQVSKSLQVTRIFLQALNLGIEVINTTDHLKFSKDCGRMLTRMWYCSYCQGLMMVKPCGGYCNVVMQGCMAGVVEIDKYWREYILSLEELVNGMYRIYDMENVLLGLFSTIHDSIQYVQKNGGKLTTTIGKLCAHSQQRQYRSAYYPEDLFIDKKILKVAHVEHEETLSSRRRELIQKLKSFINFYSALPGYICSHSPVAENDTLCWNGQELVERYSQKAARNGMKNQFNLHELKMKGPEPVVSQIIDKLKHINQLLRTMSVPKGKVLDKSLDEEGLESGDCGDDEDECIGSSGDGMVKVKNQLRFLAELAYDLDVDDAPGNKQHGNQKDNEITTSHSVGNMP
T7 construct: bought protein; also called murine GPC3 protein

polypeptide GC3pep [15] = biological target: T8, polypeptide GC3pep (human); assay: ELISA, GC3pep coated, antibody 10 nM;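 note: antibody bound to the coated peptide for 2 h at 37 °C, detected through an HRP-conjugated secondary antibody with TMB colour development stopped by acid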
T8 construct: also called membrane proximal polypeptide GC3pep
T8 peptide: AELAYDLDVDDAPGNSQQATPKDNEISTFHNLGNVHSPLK

polypeptide GC3pep [16] = biological target: T8, polypeptide GC3pep; assay: ELISA, GC3pep coated, antibody 0.001 nM
polypeptide GC3pep [17] = biological target: T8, polypeptide GC3pep; assay: ELISA, GC3pep coated, antibody 0.01 nM;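 note: bound antibody detected with an HRP-conjugated secondary antibody and TMB substrate, color reaction stopped with HCl before reading absorbance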
polypeptide GC3pep [18] = biological target: T8, polypeptide GC3pep; assay: ELISA, GC3pep coated, antibody 100 nM;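 note: detection with an HRP-conjugated secondary antibody and TMB substrate, color reaction stopped with HCl before absorbance reading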
polypeptide GC3pep [19] = biological target: T8, polypeptide GC3pep; assay: ELISA, GC3pep coated, antibody 1 nM;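 note: bound antibody detected with an HRP-conjugated secondary antibody and TMB substrate, reaction stopped with HCl, after 2 h binding at 37 °C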
polypeptide GC3pep [20] = biological target: T8, polypeptide GC3pep; assay: ELISA, GC3pep coated, antibody 0.0001 nM
polypeptide GC3pep [21] = biological target: T8, polypeptide GC3pep; assay: ELISA, GC3pep coated, antibody 0.1 nM;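 note: antibody allowed to bind the coated plate 2 h at 37 °C, then detected via HRP-conjugated secondary antibody and TMB development for 10 min, stopped with HCl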
murine GPC3-his protein [22] = biological target: T9, murine GPC3-his protein (murine, UniProt Q8CFZ4 25-558, limits assumed); assay: ELISA, murine GPC3-his coated; antibody 13.33 nM
T9 construct: Bought protein; also called mouse GPC3 protein; murine GPC3 protein; not shown: His tag

murine GPC3-his protein [23] = biological target: T9, murine GPC3-his protein; assay: ELISA, murine GPC3-his coated; antibody 66.66 nM
T9 sequence (Q8CFZ4 25-558 limits assumed): as the sequence (Q8CFZ4 25-558 limits assumed) above

GPC3 on HepG2 cells = biological target: T10, GPC3 on HepG2 cells (human, UniProt P51654 25-554); assay: FACS on HepG2 cells
T10 construct: whole, on cells; also called glypican-3

murine GPC3-his protein [24] = biological target: T9, murine GPC3-his protein; assay: ELISA, murine GPC3-his coated; antibody 0.53 nM
murine GPC3-his protein [25] = biological target: T9, murine GPC3-his protein; assay: ELISA, murine GPC3-his coated; antibody 0.02 nM
murine GPC3-his protein [26] = biological target: T9, murine GPC3-his protein; assay: ELISA, murine GPC3-his coated; antibody 0.11 nM
murine GPC3-his protein [27] = biological target: T9, murine GPC3-his protein; assay: ELISA, murine GPC3-his coated; antibody 2.67 nM
murine GPC3-his protein [28] = biological target: T9, murine GPC3-his protein; assay: ELISA, murine GPC3-his coated; antibody 0.004 nM
murine GPC3-his protein [29] = biological target: T9, murine GPC3-his protein; assay: ELISA, murine GPC3-his coated; antibody 0.0008 nM
[30] = biological target: T11, murine GPC3-His protein (Sino Biological, Cat. No. 50989-M08B) (murine, UniProt Q8CFZ4 25-558); assay: ELISA, coated antigen
T11 construct: Bought protein; also called murine GPC3 protein; mouse GPC3-his protein; not shown: His tag

B1: Y035 scFv-hFc (Fc fusion)
scFv: DIVMTQTPLSLPVITGEPASISCRSSQSLVHSNGNTYLQWYLQKPGQSPQLLIYKVSNRFSGVPDRFSGSGSGTDFTLKISRVEAEDVGVYYCSQSIYVPYTFGQGTKLEIKRGGGGSGGGGSGGGGSEVQLVQSGAEVKKPGASVKVSCKASGYTFSDYEMHWVRQAPGQGLEWMGAIHPGSGDTAYNQRFKGRVTITADKSTSTAYMELSSLRSEDTAVYYCARFYSYAYWGQGTLVTVSA[human IgG1 Fc with changes not shown]
notes: Control antibody
OD450 nm (human GPC3-His protein [1]): 0.34 OD450 | OD450 nm (human GPC3-His protein [2]): 2.59 OD450 | OD450 nm (human GPC3-His protein [3]): 1.49 OD450 | OD450 nm (human GPC3-His protein [4]): 0.1 OD450 | EC50 [5]: 3.93 nM and 2.25 nM and 6.36 nM | OD450 nm (human GPC3-His protein [6]): 0.12 OD450 | EC50 [7]: 2.06 nM and 1.72 nM and 3.22 nM | OD450 nm (human GPC3-His protein [8]): 2.37 OD450 | OD450 nm (human GPC3-His protein [9]): 2.64 OD450

B2: Y035 scFv-hFc (Fc fusion)
scFv: DIVMTQTPLSLPVITGEPASISCRSSQSLVHSNGNTYLQWYLQKPGQSPQLLIYKVSNRFSGVPDRFSGSGSGTDFTLKISRVEAEDVGVYYCSQSIYVPYTFGQGTKLEIKRGGGGSGGGGSGGGGSEVQLVQSGAEVKKPGASVKVSCKASGYTFSDYEMHWVRQAPGQGLEWMGAIHPGSGDTAYNQRFKGRVTITADKSTSTAYMELSSLRSEDTAVYYCARFYSYAYWGQGTLVTVSA[human IgG1 Fc with changes not shown]
OD450 at 0.0001 nM antibody [10]: 0.05 OD450 nm | OD450 at 0.001 nM antibody [10]: 0.05 OD450 nm | OD450 at 0.01 nM antibody [10]: 0.05 OD450 nm | OD450 at 0.1 nM antibody [10]: 0.05 OD450 nm | OD450 at 1 nM antibody [10]: 0.05 OD450 nm | OD450 at 10 nM antibody [10]: 0.05 OD450 nm | OD450 at 100 nM antibody [10]: 0.08 OD450 nm

B6: Y035 scFv-hFc (Fc fusion)
scFv: DIVMTQTPLSLPVITGEPASISCRSSQSLVHSNGNTYLQWYLQKPGQSPQLLIYKVSNRFSGVPDRFSGSGSGTDFTLKISRVEAEDVGVYYCSQSIYVPYTFGQGTKLEIKRGGGGSGGGGSGGGGSEVQLVQSGAEVKKPGASVKVSCKASGYTFSDYEMHWVRQAPGQGLEWMGAIHPGSGDTAYNQRFKGRVTITADKSTSTAYMELSSLRSEDTAVYYCARFYSYAYWGQGTLVTVSA[human IgG1 Fc with changes not shown]
notes: control antibody, made as scFv-human IgG1 Fc
OD450 nm (polypeptide GC3pep [15]): 2.5 OD450 nm | OD450 nm (polypeptide GC3pep [16]): 0.05 OD450 nm | OD450 nm (polypeptide GC3pep [17]): 0.17 OD450 nm | OD450 nm (polypeptide GC3pep [18]): 2.7 OD450 nm | OD450 nm (polypeptide GC3pep [19]): 2.2 OD450 nm | OD450 nm (polypeptide GC3pep [20]): 0.05 OD450 nm | OD450 nm (polypeptide GC3pep [21]): 0.94 OD450 nm

B7: GC33 scFv-hFc (Fc fusion)
scFv: QVQLVQSGAEVKKPGASVKVSCKASGYTFTDYEMHWVRQAPGQGLEWMGALDPKTGDTAYSQKFKGRVTLTADKSTSTAYMELSSLTSEDTAVYYCTRFYSYTYWGQGTLVTVSSGGGGSGGGGSGGGGSDVVMTQSPLSLPVTPGEPASISCRSSQSLVHSNRNTYLHWYLQKPGQSPQLLIYKVSNRFSGVPDRFSGSGSGTDFTLKISRVEAEDVGVYYCSQNTHVPPTFGQGTKLEIK[human IgG1 Fc with C220S (EU numbers) not shown]
OD450 nm (murine GPC3-his protein [22]): 0.078 | OD450 nm (murine GPC3-his protein [23]): 0.095 | EC50 (GPC3 on HepG2 cells): 2.42 nM and 1.36 nM | OD450 nm (murine GPC3-his protein [24]): 0.051 | OD450 nm (murine GPC3-his protein [25]): 0.052 | OD450 nm (murine GPC3-his protein [26]): 0.059 | OD450 nm (murine GPC3-his protein [27]): 0.107 | OD450 nm (murine GPC3-his protein [28]): 0.059 | OD450 nm (murine GPC3-his protein [29]): 0.065

B8: Y035 scFv-hFc (Fc fusion)
scFv: DIVMTQTPLSLPVITGEPASISCRSSQSLVHSNGNTYLQWYLQKPGQSPQLLIYKVSNRFSGVPDRFSGSGSGTDFTLKISRVEAEDVGVYYCSQSIYVPYTFGQGTKLEIKRGGGGSGGGGSGGGGSEVQLVQSGAEVKKPGASVKVSCKASGYTFSDYEMHWVRQAPGQGLEWMGAIHPGSGDTAYNQRFKGRVTITADKSTSTAYMELSSLRSEDTAVYYCARFYSYAYWGQGTLVTVSA[human IgG1 Fc with changes not shown]
notes: Control antibody; also called antibody Y035
binding result [30]: no binding (tested: 100 nM)

Now from value to binder:

OD450 at 0.0001 nM antibody [10]: 0.05 OD450 nm | OD450 at 0.001 nM antibody [10]: 0.07 OD450 nm | OD450 at 0.01 nM antibody [10]: 0.16 OD450 nm | OD450 at 0.1 nM antibody [10]: 0.42 OD450 nm | OD450 at 1 nM antibody [10]: 0.73 OD450 nm | OD450 at 10 nM antibody [10]: 1.24 OD450 nm | OD450 at 100 nM antibody [10]: 1.34 OD450 nm
B3: T2-23 scFv-hFc (Fc fusion)
scFv: QSALTQPPSASGSPGQSVTISCTGTSSDVGGYNYVSWYQQYPGKAPKLLIYGNSNRPSGVPDRFSGSKSGTSASLAITGLQAEDGADYYCQSYDSSLRVVFGGGTKVTVLGGGGGSGGGGSGGGGSQVQLQESGGGLVQPGRSLRLSCAASGFTFSSYAMHWVRQAPGKGLEWVSAISSSGRSTYYADSVEGRFTISRDNSKNTLYLQMNSLRAEDTAVYYCAKDRRGSHADALNVWGQGTLVTVSS[human IgG1 Fc with changes not shown]

Kd (monkey GPC3-His protein [11]): 1.75 nM | koff (monkey GPC3-His protein [11]): 0.000365 s⁻¹ | kon (monkey GPC3-His protein [11]): 209000 M⁻¹ s⁻¹ | Kd (human GPC3-His protein [12]): 2.36 nM | koff (human GPC3-His protein [12]): 0.000365 s⁻¹ | kon (human GPC3-His protein [12]): 155000 M⁻¹ s⁻¹ | OD450 at 0.0001 nM (monkey GPC3-His protein [13]): 0.05 OD450 | OD450 at 0.001 nM (monkey GPC3-His protein [13]): 0.08 OD450 | OD450 at 0.01 nM (monkey GPC3-His protein [13]): 0.35 OD450 | OD450 at 0.1 nM (monkey GPC3-His protein [13]): 1.79 OD450 | OD450 at 1 nM (monkey GPC3-His protein [13]): 2.32 OD450 | OD450 at 10 nM (monkey GPC3-His protein [13]): 2.6 OD450 | OD450 at 100 nM (monkey GPC3-His protein [13]): 2.64 OD450
B4: Y035 scFv-hFc (Fc fusion)
chain: DIVMTQTPLSLPVITGEPASISCRSSQSLVHSNGNTYLQWYLQKPGQSPQLLIYKVSNRFSGVPDRFSGSGSGTDFTLKISRVEAEDVGVYYCSQSIYVPYTFGQGTKLEIKRGGGGSGGGGSGGGGSEVQLVQSGAEVKKPGASVKVSCKASGYTFSDYEMHWVRQAPGQGLEWMGAIHPGSGDTAYNQRFKGRVTITADKSTSTAYMELSSLRSEDTAVYYCARFYSYAYWGQGTLVTVSA[human IgG1 Fc with changes not shown]

Kd (murine GPC3-His protein [14]): 0.134 nM | koff (murine GPC3-His protein [14]): 6.75e-05 s⁻¹ | kon (murine GPC3-His protein [14]): 505000 M⁻¹ s⁻¹
B5: T2-23 scFv-hFc (Fc fusion)
scFv: QSALTQPPSASGSPGQSVTISCTGTSSDVGGYNYVSWYQQYPGKAPKLLIYGNSNRPSGVPDRFSGSKSGTSASLAITGLQAEDGADYYCQSYDSSLRVVFGGGTKVTVLGGGGGSGGGGSGGGGSQVQLQESGGGLVQPGRSLRLSCAASGFTFSSYAMHWVRQAPGKGLEWVSAISSSGRSTYYADSVEGRFTISRDNSKNTLYLQMNSLRAEDTAVYYCAKDRRGSHADALNVWGQGTLVTVSS[human IgG1 Fc with changes not shown]
notes: as for B6
